Results as given in PMC4336329 (PLoS ONE, 2015).
Hit rate of the full screen: of about 310,000 compounds, about 2,200 (0.71%) showed an effect of 50% or more. Effects have a minus sign here. This is one part of the list.

target: human ether-à-go-go-related gene (hERG) potassium channel (human, UniProt Q12809); assay: primary screen, population patch clamp on CHO cells stably expressing hERG
Sequence (Q12809 whole entry, looked up): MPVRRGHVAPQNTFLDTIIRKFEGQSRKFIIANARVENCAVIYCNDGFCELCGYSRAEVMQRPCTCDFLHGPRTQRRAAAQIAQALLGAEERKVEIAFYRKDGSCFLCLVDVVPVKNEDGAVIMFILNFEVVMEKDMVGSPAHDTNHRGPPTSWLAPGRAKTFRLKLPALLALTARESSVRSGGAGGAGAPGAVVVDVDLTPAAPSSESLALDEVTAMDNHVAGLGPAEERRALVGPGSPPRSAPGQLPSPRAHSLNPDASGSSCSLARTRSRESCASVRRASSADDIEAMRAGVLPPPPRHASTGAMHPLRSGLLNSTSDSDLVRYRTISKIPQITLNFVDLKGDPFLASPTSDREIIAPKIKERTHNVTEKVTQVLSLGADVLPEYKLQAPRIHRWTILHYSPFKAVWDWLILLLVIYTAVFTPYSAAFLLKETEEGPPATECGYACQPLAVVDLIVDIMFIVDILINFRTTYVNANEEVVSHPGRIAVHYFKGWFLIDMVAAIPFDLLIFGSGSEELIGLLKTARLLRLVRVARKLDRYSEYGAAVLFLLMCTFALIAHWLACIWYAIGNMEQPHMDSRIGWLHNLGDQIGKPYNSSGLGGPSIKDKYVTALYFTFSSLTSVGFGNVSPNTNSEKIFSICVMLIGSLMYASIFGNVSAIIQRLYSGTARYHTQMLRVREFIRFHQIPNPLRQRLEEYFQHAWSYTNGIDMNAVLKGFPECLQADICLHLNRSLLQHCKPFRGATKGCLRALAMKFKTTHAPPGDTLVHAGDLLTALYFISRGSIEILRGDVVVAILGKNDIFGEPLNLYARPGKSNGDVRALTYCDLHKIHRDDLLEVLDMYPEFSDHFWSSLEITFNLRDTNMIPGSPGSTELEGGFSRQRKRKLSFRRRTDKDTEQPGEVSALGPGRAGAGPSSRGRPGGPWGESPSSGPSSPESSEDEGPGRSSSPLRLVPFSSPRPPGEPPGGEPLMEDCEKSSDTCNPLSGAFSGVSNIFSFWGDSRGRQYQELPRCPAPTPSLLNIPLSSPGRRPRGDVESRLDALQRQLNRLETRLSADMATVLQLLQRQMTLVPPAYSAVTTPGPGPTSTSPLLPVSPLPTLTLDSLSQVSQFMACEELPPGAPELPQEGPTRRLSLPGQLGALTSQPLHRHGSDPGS

Compound | hERG current change (%, negative = inhibition) at 1uM [%]
CN(C(=O)CSc1nnc(NCc2ccccc2)s1)C1CCS(=O)(=O)C1 (centres unmarked) | 7.52
COc1ccccc1CNC(=O)CN1C(=O)NC2(CCCc3ccccc32)C1=O (centres unmarked) | 13.2
O=C(N/N=C\c1cccc(F)c1)c1ccc(-c2ccccc2)cc1 | 24.2
O=C(Nc1ccc2c(c1)OCCO2)c1cccc(C(=O)Nc2ccc3c(c2)OCCO3)c1 | 12.8
S=C(NCc1ccc(Cl)cc1)NC1CCN(Cc2ccccc2)CC1 | 0.149
CSC1=N/C(=C\c2cccc(Cl)c2)C(=O)N1N(C)C | 13.3
CCn1c(SCC(=O)Nc2nc(C)cs2)nnc1-c1ccco1 | -21.4
CCC(C)(C)NC(=O)C(c1ccncc1)N(C(=O)c1sc(C)nc1C)c1ccc(C)cc1 (centres unmarked) | 15.6
Cc1cc(=O)oc2cc(NC(=O)C3CC(=O)N(Cc4ccccc4)C3)ccc12 (centres unmarked) | 8.91
O=S(=O)(c1cccc(F)c1)N1CCCN(c2ccc(C(F)(F)F)cn2)CC1 | 7.54
O=C(Cc1ccc(Cl)cc1)NCc1nc(-c2ccccc2)no1 | 11.4
Clc1ccc(-c2cc(C3CCNCC3)[nH]n2)c(Cl)c1 | 4.35
COc1cc2c(-c3ccc4[nH]ccc4c3)c(-c3ccc(C#N)cc3)oc(=O)c2cc1OC | 14.9
Cc1nn(-c2ccccc2)c(C)c1C(=O)NCCc1ccc(Cl)cc1 | 9.8
CN(Cc1ccccc1)C(=O)c1cn(C)c2ccc(S(=O)(=O)N3CCCC3)cc2c1=O | 13.8
Cc1ccc(S(C)(=O)=NS(=O)(=O)c2cccc3nsnc23)cc1 (centres unmarked) | 9.72
COc1cccc(N2CC(NC(=O)C(=O)c3c[nH]c4ccccc34)CC2=O)c1 (centres unmarked) | 17.2
O=S(=O)(NC1CC1)c1ccc(Cl)cc1 | 10.8
CCN1CCN(c2nc3c(c(=O)[nH]c(=O)n3C)n2Cc2ccccc2F)CC1 | 8.37

Compound | hERG current change (%, negative = inhibition) at 1uM [%]
CCCC(C)NC(=O)c1ccc(OCc2ccc(Cl)cc2)c(OC)c1 (centres unmarked) | 16.6
CCN1CCN(CCC(=O)Nc2cc(OC)cc(OC)c2)CC1 | 14
COc1ccc(C(=O)NCc2ccc3c(c2)OCO3)cc1 | 6.55
CCOc1ccccc1C1CC(=O)NC(SCC(=O)Nc2nccs2)=C1C#N (centres unmarked) | 5.71
Cc1cc(OC(F)F)ccc1NC(=O)Nc1ccc([N+](=O)[O-])cc1 | 1.76
CCOc1cc(C(=O)OCC(=O)Nc2ncc(Cl)c(C)c2Cl)ccc1OCC(=O)N1CCOCC1 | 6.16
O=C(Nc1ccc2c(c1)nc1n2CCN(C2CCCCC2)C1)NC1CCCCC1 | 2.2
CC(Nc1c([N+](=O)[O-])c(=O)oc2ccccc12)c1ccccc1 (centres unmarked) | 4.9
C/C(=N\Nc1ccc([N+](=O)[O-])cc1[N+](=O)[O-])c1cc2c(ccc3ccccc32)oc1=O | 7.62
Cc1cc(N2CCN(C)CC2)nc2ccc(NC(=O)c3ccccc3F)cc12 | -3.39
CCCSc1nc2c(cnn2-c2ccccc2)c(=O)n1N | 2.5
COc1ccc(OC)c(Nc2nc(-c3sc(C)nc3C)cs2)c1 | 9.09
COc1ccc(C)cc1NC(=O)CNCc1cccs1.Cl | 7
O=C1Nc2ccccc2SC1c1ccccc1 (centres unmarked) | 15.8
COc1ccc(CC2SC(N)=NC2=O)cc1 (centres unmarked) | 16.4
CCN(CC)S(=O)(=O)c1cccc(C(=O)N2CCCCC2)c1 | 8.23
O=C(Cc1ccccc1F)Nc1cc(S(=O)(=O)N2CCOCC2)ccc1N1CCOCC1 | 6.8
COC(=O)c1c(C(=O)OC)c(-c2cccc(Cl)c2)n2c1CS(=O)C2 (centres unmarked) | 20.5
Nc1nonc1C(=O)NCCc1ccccc1 | 23.9

Compound | hERG current change (%, negative = inhibition) at 1uM [%]
COc1ccc2cc(C(=O)N3CCOCC3)sc(=O)c2c1OC | 10.5
Cc1ccc(CCNC(=O)c2cccc(NC3=NC4CS(=O)(=O)CC4S3)c2)cc1 (centres unmarked) | 14.8
COC(=O)C1SCC2C(=O)N(Cc3ccc(Cl)cc3)CC(=O)N21 (centres unmarked) | 16
COC(=O)Cc1ccc(NC(=S)N2CCN(c3ccc(F)cc3)CC2)cc1 | 6.47
CCCCCc1c(C)nc(Nc2ccc(F)cc2)[nH]c1=O | 9.73
CCN(CC)CC.COc1cc2c(cc1OC)[C@H](C)N(C(=S)Nc1ccc(F)cc1)CC2 | 13.2
CCCCC1=CC2=C(c3ccco3)C(=O)C(C)(OC(=O)c3ccc(OC)cc3)C(=O)C2=CN1C1CC1 (centres unmarked) | 4.3
COc1ccc(/C=C2\CCCC3C2=NN(C(=O)COC(=O)CNC(=O)c2ccccc2)C3c2ccc(OC)cc2)cc1 (centres unmarked) | 22.9
O=C(N/N=C1\CCCCc2ccccc21)c1ccccn1 | 6.16
Cc1cc(C)nc(NC2=NCCN2C(=O)NC2CCCCC2)n1 | -5.48
Cc1ccc(C(=O)NC23CC4CC(CC(C4)C2)C3)c(Cl)c1 | 16.4
CCC(C(=O)OC)n1c(-c2ccccc2)nc2ccccc2c1=O (centres unmarked) | 14.9
Cc1cc(OCCn2ccnc2)cc(C(C)C)c1.O=C(O)C(=O)O | 5.63
CCCCC(=O)Nc1c(-c2cccc(OC)c2)c(=O)c2ccccc2n1C | 7.9
CCN(CC)CCCNC(=O)C1c2cc(OC)c(OC)cc2C(=O)N(C)C1c1cccs1 (centres unmarked) | 6.42
Cc1nc2nc(Cc3ccccc3)[nH]n2c(=O)c1Cc1ccccc1 | 8.81
Cc1cccc(N=Nc2c(N)n[nH]c2N)c1 | 20
COc1ccc(C(=O)N(C)CC(=O)Nc2cccc(F)c2)cc1S(=O)(=O)NC1CCCC1 | 4.68
